# Test results as given in US6992079B2, “Substituted 11-phenyl-dibenzazepine compounds useful for the treatment or prevention of diseases characterized by abnormal cell proliferation” (President Fellows of Harvard College, priority 1997, dated 2006).
# System: NCI-H322M
# Details: for GI50 / CC50: Homo sapiens; for CC50: read-out: LC50 (the source's name)
# Experimental: Exemplary compounds 28, 30 and 31 have been screened, using sulforhodamine B (SRB) assay to screen the antiproliferative effects of the compounds against a panel of human cancer cells. The panel comprises 60 human cancer cell lines. The data obtained in his study was evaluated using the COMPARE algorithm.
# The measured effect of the compound on a cell line is currently calculated according to one or the other of the following two expressions: If (Mean ODtest−Mean ODtzero)≧0, then PG=100×(Mean ODtest−Mean ODtzero)/(Mean ODctrl−Mean ODtzero) If (Mean ODtest−Mean ODtzero)<0, then PG=100×(Mean ODtest−Mean ODtzero)/Mean ODtzero Where; • Mean ODtzero=The average of optical density measurements SRB-derived color just before exposure of cells to the test compound. • Mean ODtest=The average of optical density measurement of SRB-derived color after 48 hours exposure of cells to the test compound. • Mean ODctrl=The average of optical density measurements of SRB-derived color after 48 hours with no exposure of cells to the test compound. The Data Sheet:
# This page of the data package presents the experimental data collected against each cell line. The first two columns describe the subpanel (e.g. leukemia) and cell line (e.g. CCRF-CEM) involved. The next two columns list the Mean ODtzero and Mean ODctrl the next five columns list the Mean ODtest for each of five different concentrations. Each concentration is expressed as the log10 (molar or μg/ml). The next five columns list the calculated PGs for each concentration. The response parameters GI50, TGI, and LC50 are interpolated values representing the concentrations at which the PG is +50.0, and −50, respectively. Sometimes these response parameters cannot be obtained by interpolation. If, for instance, all of the PGs in a given row exceed +50, then none of the three parameters can be obtained by interpolation. In such a case, the value given for each response parameter is the highest concentration tested and is preceded by a “>” sign. This practice is extended similarly to the other possible situations where a response parameter cannot be obtained by interpolation.
smiles,measurement,setting,value
"O=C(c1ccc([N+](=O)[O-])cc1)N1Cc2ccccc2C(c2ccccc2Cl)c2ccccc21 (stereo not drawn) [Compound 28, N-(4′-Nitrobenzoyl)-11-(2′-chlorophenyl)-5,6-dihydro-11H-dibenz[b,e]azepine]",TGI,48 h,>1.00E−04 Molar
same,GI50,48 h,669 nM
same,CC50,48 h,> 100000 nM
same,Percent Growth,"log10 conc −4.0 Molar, 48 h",34%
same,Percent Growth,"log10 conc −5.0 Molar, 48 h",37%
same,Percent Growth,"log10 conc −6.0 Molar, 48 h",44%
same,Percent Growth,"log10 conc −7.0 Molar, 48 h",78%
same,Percent Growth,"log10 conc −8.0 Molar, 48 h",91%
COc1ccc2c(c1)CN(C(=O)c1ccc([N+](=O)[O-])cc1)c1ccc(Cl)cc1C2c1ccccc1Cl (stereo not drawn) [Compound 30],TGI,,>1.00E−04 Molar
same,GI50,,3000 nM
same,CC50,,> 100000 nM
same,Percent Growth,Log10 concentration −4.0 Molar,26%
same,Percent Growth,Log10 concentration −5.0 Molar,31%
same,Percent Growth,Log10 concentration −6.0 Molar,68%
same,Percent Growth,Log10 concentration −7.0 Molar,89%
same,Percent Growth,Log10 concentration −8.0 Molar,90%
COc1cccc2c1C(c1ccccc1Cl)c1cc(Cl)ccc1N(C(=O)c1ccc([N+](=O)[O-])cc1)C2 (stereo not drawn) [Compound 31],TGI,,>1.00E−04 Molar
same,GI50,,2340 nM
same,CC50,,> 100000 nM
same,Percent Growth,log10 conc -4 Molar,9%
same,Percent Growth,log10 conc -5 Molar,15%
same,Percent Growth,log10 conc -6 Molar,71%
same,Percent Growth,log10 conc -7 Molar,94%
same,Percent Growth,log10 conc -8 Molar,98%

# Read-outs that look alike come from different tables or passages of the source.
